Measurements taken from PubChem BioAssay AID1347071 (National Center for Advancing Translational Sciences (NCATS), 2019).
Among all 410,000 compounds or so, about 260 (0.063%) were called active. The shares of active, inactive and inconclusive entries below differ from those in the screen. Calls come from the whole dose curve; as a rule, active = well fitted activation curve with a large enough effect; inconclusive = small, poorly fitted or top-dose-only effect; inactive = no such curve, though single readings can be large or run the other way. No potency is given beside an inconclusive call; the fits are too rough.

Assay: qHTS for compounds that reverse cellular toxicity of Amyloid beta (A-beta) peptide in yeast: Primary Screen; note: nearly all actives have a fitted effect of over 55% in size
Settings: yeast expressing A-beta42, growth rescue, OD600, 48 h; growth rescue: at 46.1 µM (top of the series), 0% DMSO, 100% iron-clioquinol control
Outline: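 Yeast A-beta toxicity model in growth medium with pinned compounds, 48 h at 30 C; growth read as absorbance at 600 nm. Normalized to FeCl3/clioquinol equimolar mix (positive) and DMSO (negative).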
Potency is the fitted concentration of half-maximal effect; tags give direction and shape of the fitted curve.

SMILES | Potency | growth rescue
COc1cccc(CN2CCN(c3ccc(F)cc3)C2=O)c1 | inconclusive [activator, single point] | 
O=C(CSC1=NNC(c2ccccn2)S1)Nc1cccc(Cl)c1 (stereo unspecified) | active: 15.8 µM | 
Cc1ccc2ccccc2c1C(O)c1ncc(-c2cccc(C(F)(F)F)c2)[nH]1 (stereo unspecified) | inconclusive [activator, single point] | 
CC(C)(C)NC(=O)C(c1ccc(C(F)(F)F)cc1)n1c(=O)c(-c2cc3ccccc3[nH]2)nc2ccccc21 (stereo unspecified) | inconclusive [activator, partial curve] | 
COc1ccc(NC(=O)CCNS(=O)(=O)c2cccc3nsnc23)cc1Cl |  | inactive: -2.48%
CCOC(=O)CSc1nnc(NCC(=O)OC)c(=O)[nH]1 |  | inactive: 3.85%
O=C(O)Cc1ccc(C(=O)c2cccs2)s1 |  | inactive: 10.4%
Cc1ccc(OCC(O)CN2CCN(c3ccc(C)cc3)CC2)cc1 (stereo unspecified) | inconclusive [activator, partial curve, poor fit] | 
COc1ccc(CNc2cccc(F)c2)cc1Br |  | inactive: 3.36%
CC1CCC(=NNS(=O)(=O)c2ccc([N+](=O)[O-])cc2)CC1 (stereo unspecified) | inconclusive [activator, full curve] | 
O=C(NC(=S)NC1CCCCCC1)c1cncc(Br)c1 | inconclusive [activator, partial curve, poor fit] | 
Fc1ccc(/C=C/c2nnc(-c3cccs3)o2)cc1 |  | inactive: -6.05%
CC(C)(C)CC(C)(C)c1ccc(OCC(=O)N/N=C/c2ccc(S(=O)(=O)O)o2)cc1 |  | inactive: 0.414%
Cc1cccc(C)c1NC(=O)COC(=O)COc1ccc2c(C)cc(=O)oc2c1 |  | inactive: -0.659%
Cc1cccc(C2=NN(c3ccccc3)[C@H](CO)[C@H]2c2ccccc2)c1 | inconclusive [activator, single point] | 
Cc1cc(NC(=O)Cc2ccsc2)ccc1Br | inconclusive [activator, partial curve, poor fit] | 
O=C(NC(=S)Nc1ccccc1Br)C1CCC1 | inconclusive [activator, partial curve] | 
Cc1nn(C(C)C(=O)N2CCN(c3ccccn3)CC2)c(=O)c2cc3occc3n12 (stereo unspecified) |  | inactive: -7.63%
Cc1ccc(NC(=O)CSc2n[nH]c(-c3cccnc3)n2)cc1Cl |  | inconclusive: -0.856% [activator]
COc1cc(C)c(S(=O)(=O)NCc2ccc3c(c2)OCO3)cc1C |  | inactive: -2.2%
Cn1c(C(=O)O)cc2cc(Oc3ccccc3)ccc21 |  | inactive: -14.4%
COc1ccc(-c2cc3nc(NCC4CCCCC4)n(C)c(=O)c3s2)cc1OC | active: 22.4 µM | 
CC(Oc1ccc(C#N)cc1)C(=O)NC1CCCC1 (stereo unspecified) |  | inactive: -10.3%
CCCCC1CCC(C(=O)N2CC(=O)Nc3ccc(Cl)cc3C2c2ccc(F)cc2)CC1 (stereo unspecified) | inconclusive [activator, partial curve, poor fit] | 

SMILES | Potency | growth rescue
O=C(Nc1ccc(C(F)(F)F)cc1)N1CCN(c2ccnc3cc(Cl)ccc23)CC1 | inconclusive [activator, single point] | 
CC1Cc2ccccc2N1C(=O)CSc1ncc(-c2ccc(F)cc2)n1C (stereo unspecified) | inconclusive [activator, partial curve, poor fit] | 
CC(=O)c1sc2nc(SCC(=O)N3CCCCC3)[nH]c(=O)c2c1C | inconclusive [activator, partial curve, poor fit] | 
COCCn1nnnc1C(c1cc2ccc(OC)cc2[nH]c1=O)N1CCN(C2CCCCC2)CC1 (stereo unspecified) |  | inconclusive: -86.6% [activator]
CN(C)c1nc(SCCOC(=O)Nc2ccccc2)nc(N(C)C)n1 |  | inactive: 12.6%
Cc1cccc(C)c1Nc1c(-c2ccc(N3CCOCC3)cc2)nc2cnccn12 | inconclusive [activator, partial curve] | 
CCCCCCc1cc2cc(S(=O)(=O)c3ccc(C)cc3)c(=O)oc2cc1O |  | inactive: -5.26%
c1ccc2[nH]c(-c3cnco3)cc2c1 | inconclusive [activator, partial curve, poor fit] | 
CC(C)c1ccccc1NC(=S)NC(C)c1ccccc1 (stereo unspecified) | inconclusive [activator, full curve] | 
CCOC(=O)c1sc(NC(=O)c2c(OC)cccc2OC)nc1C |  | inactive: -5.51%
CCC1CCCCN1S(=O)(=O)c1ccc(C(=O)Nc2nnc(C3CC3)o2)cc1 (stereo unspecified) | inconclusive [activator, partial curve, poor fit] | 
CCc1ccc(S(=O)(=O)NCCc2csc(-c3cccnc3)n2)s1 | inconclusive [activator, partial curve, poor fit] | 
CC(=O)N1CCCc2cc(S(=O)(=O)N3CCc4ccccc4C3)ccc21 | inconclusive [activator, single point] | 
CC1CCN(C(=O)C2CCN(S(=O)(=O)c3cc(Cl)ccc3Cl)CC2)CC1 | inconclusive [activator, full curve] | 
CC(Oc1ccc(Cl)cc1)C(=O)Nc1cccc(S(=O)(=O)N2CCCC2)c1 (stereo unspecified) |  | inactive: -7.51%
COc1ccc(NC(=O)CSc2nc(-c3ccco3)nc3cc(=O)[nH]n23)cc1Cl | inconclusive [activator, full curve, poor fit] | 
CC(=O)c1cccc(NC(=S)NC2CCCCCCC2)c1 | inconclusive [activator, single point] | 
O=C(NNC(=S)NC(=O)c1ccccc1)c1cccc([N+](=O)[O-])c1 | inconclusive [activator, partial curve] | 
COc1cc(/C=N/NC(=S)NC2CC3CCC2C3)ccc1O (stereo unspecified) | active: 11.2 µM | 
CCN(C(=O)CSc1nc2n[nH]c(C)c2c(=N)n1-c1cccc(OC)c1)c1cccc(C)c1 |  | inactive: 13.1%
COc1ccc(-c2csc(NC(=O)c3c(C)noc3C)n2)cc1 | inconclusive [activator, single point] | 
O=C(CNc1cccc2ccccc12)c1ccc([N+](=O)[O-])cc1 |  | inactive: -25.9%
COc1ccc(CN(C)Cc2cc(=O)n3ccsc3n2)c(OC)c1OC | inconclusive [activator, single point] | 
Nc1nc(Nc2ccccc2F)sc1C(=O)c1ccccc1 | inconclusive [activator, partial curve, poor fit] | 

SMILES | Potency | growth rescue
O=C(COC(=O)C1(c2ccccc2F)CCCC1)NC1CCS(=O)(=O)C1 (stereo unspecified) |  | inactive: 20.4%
OC(c1ccc(F)cc1)c1nc(-c2cc3ccccc3o2)cs1 (stereo unspecified) | inconclusive [activator, partial curve, poor fit] | 
COc1ccc(OCCC(=O)OCC(=O)NC(=O)NC(C)(C)C)cc1 | inconclusive [activator, partial curve, poor fit] | 
CC(C)[C@H](NC(=O)[C@H](CCCN=C(N)N)NC(=O)NC(Cc1ccccc1)C(=O)O)C(=O)NC(C=O)CCCN=C(N)N (stereo partly specified) |  | inconclusive: -72% [activator]
Cc1ccc(SCC(=O)OCC(=O)N(C)CC(=O)Nc2ccccc2Cl)cc1C | inconclusive [activator, partial curve, poor fit] | 
Cc1ccc(C)c(NC(=O)Cn2c(=O)n(Cc3ccc4c(c3)OCO4)c(=O)c3oc4ccccc4c32)c1 |  | inactive: 9.85%
CCCn1c(SCC(=O)C(C)(C)C)nc2ccccc21 | inconclusive [activator, single point] | 
CSc1ccccc1NC(=S)NCc1ccc(Cl)cc1 | active: 15.8 µM | 
O=C1CCC(=O)N1CNc1cccnc1 | inconclusive [activator, full curve] | 
COc1ccc(N(CC(=O)Nc2ccccc2OC)S(=O)(=O)c2ccccc2)cc1Cl | inconclusive [activator, partial curve, poor fit] | 
CCOC(=O)C1=C(C)OC(=Cc2ccc(OC)cc2)C1=O |  | inconclusive: 35.1% [activator]
NC(=S)c1cnn2c(-c3cccc(C(F)(F)F)c3)ccnc12 | active: 6.31 µM | 
CC(=O)/C(=C\N(C)C)Sc1ccc(Cl)cc1 | inconclusive [activator, single point] | 
O=C(OCc1nc2scc(-c3ccccc3)c2c(=O)[nH]1)c1cc(Cl)ccc1[N+](=O)[O-] | inconclusive [activator, partial curve, poor fit] | 
Cc1ccccc1N(CC(=O)NC1CCCCC1)C(=O)CCCC(=O)Nc1ccccn1 | inconclusive [activator, single point] | 
CN(C(=O)Cn1ncc2c1-c1ccccc1OC2)c1ccc(Br)cc1 |  | inactive: -5.78%
CCCc1nc(SCc2ccccc2Cl)n[nH]1 | inconclusive [activator, single point] | 
CC(C)CN(CC(C)C)C(=S)Nc1ccc(Cl)cc1 | inconclusive [activator, single point] | 
COc1ccc(CNC(=S)Nc2ccccc2F)cc1 | inconclusive [activator, single point] | 
O=C1C=C(O)CC(c2ccco2)C1 (stereo unspecified) | inconclusive [activator, full curve] | 
COC(=O)c1cccc(NC(=S)NCc2ccc(Cl)cc2)c1 | inconclusive [activator, single point] | 
COc1ccccc1OCc1ccc(C(=O)Nc2cc(OC)c(OC)c(OC)c2)o1 | inconclusive [activator, partial curve, poor fit] | 
Cc1nn(CC(=O)N2CCN(c3cccc(Cl)c3)CC2)c(=O)c2c1sc1ccccc12 |  | inactive: -4.61%
